From article PMC6919601, “Identification of Plasmodium dipeptidyl aminopeptidase allosteric inhibitors by high throughput screening” (PLoS ONE, 2019)
Values joined by “and” are separate entries in the source; they are usually repeats but may differ in a detail not shown here. Equal entries are not always repeated. In all, about 110,000 compounds went through this assay and about 230 (0.21%) showed an effect of 50% or more. This is one part of the list.

molecular target: DPAP1 (Plasmodium falciparum, UniProt Q8IIJ9); assay: primary screen, percent inhibition; read by cleavage of a fluorogenic dipeptide substrate; higher = more effect of the substance; set-up: species or system P. falciparum D10 trophozoite lysates; single well
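Further: 30 min substrate incubation versus DMSO and 10 µM JCP410 controls.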

DPAP1, sequence (Q8IIJ9 whole entry, looked up): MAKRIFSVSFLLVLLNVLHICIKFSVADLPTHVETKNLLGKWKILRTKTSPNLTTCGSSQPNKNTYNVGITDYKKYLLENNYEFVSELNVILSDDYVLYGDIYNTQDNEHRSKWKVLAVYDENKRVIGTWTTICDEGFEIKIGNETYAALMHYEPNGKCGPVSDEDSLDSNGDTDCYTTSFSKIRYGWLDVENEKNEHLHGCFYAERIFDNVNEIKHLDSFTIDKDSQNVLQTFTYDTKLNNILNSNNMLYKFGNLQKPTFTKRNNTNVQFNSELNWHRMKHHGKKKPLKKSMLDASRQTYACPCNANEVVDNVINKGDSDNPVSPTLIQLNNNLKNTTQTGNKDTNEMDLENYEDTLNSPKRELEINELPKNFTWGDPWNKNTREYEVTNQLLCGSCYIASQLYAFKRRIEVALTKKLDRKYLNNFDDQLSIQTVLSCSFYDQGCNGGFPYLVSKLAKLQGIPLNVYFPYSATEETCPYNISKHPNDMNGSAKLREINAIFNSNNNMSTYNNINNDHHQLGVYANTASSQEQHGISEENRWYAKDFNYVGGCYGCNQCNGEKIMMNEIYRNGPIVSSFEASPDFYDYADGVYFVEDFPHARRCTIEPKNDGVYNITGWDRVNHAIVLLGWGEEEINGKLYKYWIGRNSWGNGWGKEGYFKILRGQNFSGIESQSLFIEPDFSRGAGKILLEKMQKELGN

Point of comparison: `CCc1nn(C(C)C(=O)NCCCN2CCOCC2)c(=O)c2cc3occc3n12` (stereo not drawn), “% Inhibition @ 10 uM” value -0.281%. Against it:
- COCCCN(C)C1CCN(C(=O)Cn2c(-c3ccccc3)cc(C(C)=O)c2C)CC1 — lower, -7.26%
- CC(C)C(=O)Nc1nc(-c2cccc3ccccc23)cs1 — higher, 1.57%
- O=C(CSCc1ccccc1)N1CCN(Cc2ccc3c(c2)OCO3)CC1 — higher, 3.87%
- CN(Cc1ccccc1)C(=O)Cc1noc2ccccc12 — higher, 9.85%
- C[Si](C)(C)CCCN1C=CC(=C2C(=O)c3ccccc3C2=O)C=C1 — higher, 3.54%
- COc1ccc(C2=NNC(=O)c3ccccc3C2)cc1 — lower, -7.35%
- CSc1nnc(NC(=O)c2nc(S(=O)(=O)Cc3ccc(C)cc3)ncc2Cl)s1 — lower, -0.946%
- Cc1cccc(CN2CCN(CC(=O)NCc3ccc4c(c3)OCO4)C2=O)c1 — lower, -8.49%
- CC(C)(CO)NC(=O)COc1ccc(Cl)cc1Cl — lower, -3.04%
- CCC(=O)Nc1ccccc1C(=O)c1ccccc1 — lower, -6.64%
- O=C(N[C@@H](Cc1ccc2ccccc2c1)C(=O)N[C@@H](CCc1ccccc1)CNS(=O)(=O)c1ccc2oc3ccccc3c2c1)OCc1ccccc1 — higher, 0.744%
- O=C(O)CCC(=O)Nc1ccc(F)cc1 — lower, -8.76%
- O=C(NCc1noc2ccccc12)Nc1nccs1 — higher, 2.49%
- CCOC(=O)c1c(NC(=O)c2nc(SC)ncc2Cl)sc(C(C)=O)c1C — higher, 2.19%
- CCNC(=O)CCC1COc2ccccc2O1 (stereo not drawn) — higher, 1.67%
- CC(=O)c1sc(N2C(=O)C(O)=C(C(=O)c3cc4ccccc4o3)C2c2ccc(O)cc2)nc1C (stereo not drawn) — higher, 1.64%
- COc1ccc(-n2nnnc2C2CCN(S(=O)(=O)Cc3ccccc3)CC2)cc1 — lower, -9.21%
- CC1=C(C(=O)Nc2cccc(C)n2)C(c2ccsc2)C2=C(O)CC(C)(C)CC2=N1 (stereo not drawn) — higher, 3.86%
- Cc1ccc(OCC(=O)Nc2ccc(Cl)c(C(F)(F)F)c2)c(Br)c1 — higher, 2.65%
- CCOC(=O)N1CCC(NC(=O)Cn2ncc3c4ccccc4n(Cc4ccccc4)c3c2=O)CC1 — higher, 0.137%
- O=C(COc1ccccc1)N1CCN(C(c2ccccc2)c2ccccc2)CC1 — lower, -9.4%
- CC(C)c1ccc(OCC(=O)N(Cc2nc(-c3ccc(Cl)cc3)no2)C(C)C)cc1 — higher, 3.88%
- Cc1ccccc1OCc1nnc(SCc2ccc(C#N)cc2Cl)n1C — higher, 4.42%
- COc1ccc(CCNC(=O)CN2CCN(Cc3ccc4c(c3)OCO4)CC2)cc1OC — higher, 3.68%
- Sc1nncn1-c1ccccn1 — lower, -5.26%
- CN1C(=O)S/C(=C\c2cc(Cl)c(O)c(Br)c2)C1=O — higher, 0.484%
- Cc1nc2c(c(C)c1CCC(=O)N1CCN(Cc3ccccc3)CC1)c(=O)n(C)c(=O)n2C — higher, 5.32%
- O=C(c1ccc2ccccc2c1)N1CCc2[nH]c3ccccc3c2C1 — higher, 7.06%
- COc1ccc(N(CC(=O)Nc2ccccc2C)S(=O)(=O)c2ccc(NC(C)=O)cc2)cc1 — higher, 1.87%
- Cc1ccc(C(C)NC(=O)Nc2cccc(C)c2)cc1 (stereo not drawn) — higher, 5.44%
- N#CC1=C(N)N(c2ccc(Cl)cc2)C2=C(C(=O)CCC2)C1c1cccs1 (stereo not drawn) — higher, 0.76%
- c1coc(CNc2nc[n+]3c4c2ncn4CC3)c1 — lower, -5.2%
- Oc1nc(SCc2ccc(F)cc2)nc2c1nnn2Cc1ccccc1 — lower, -3.75%
- CCOC(=O)c1cc(-c2ccccc2C)no1 — higher, 6.51%
- O=C(NCc1ccc(Cl)cc1)c1cccc2c1C(=O)N(CC1CCCO1)C2 (stereo not drawn) — lower, -2.83%
- CCCCSC1=C(C#N)C(=O)NC(c2ccco2)S1 (stereo not drawn) — higher, 6.46%
- CCOC(=O)c1c(NC(=O)CN2CCCCC2)sc2c1CCCC2 — higher, 1.29%
- CCOc1ccc(NC2=CC(=O)c3ccccc3C2=O)cc1 — higher, 3.34%
- CC1CN(C(=O)C2CC2)C(C)CN1C(=O)C1CC1 (stereo not drawn) — lower, -3.13%
- CC1CCCC(C)N1CC(O)COc1ccc([N+](=O)[O-])cc1 (stereo not drawn) — lower, -3.16%
- CC(C)c1ccc(OCC(=O)Nc2ccc(CN3CCOCC3)cc2)cc1 — higher, 4.03%
- COc1ccccc1C(=O)N/C(=C\c1ccc2c(c1)OCO2)C(=O)NCc1ccccc1 — higher, 7.1%
- C=CCOc1ccc(C2C3CN(C)CC=C3C(C#N)=C(N)C2(C#N)C#N)cc1 (stereo not drawn) — lower, -1.11%
- CCN1CCC(NCCc2ccccc2)CC1 — higher, 1.88%
- Cc1nc2c(-c3ccc(F)cc3)c(C)nn2c(C)c1CC(=O)N1CCC(C)CC1 — higher, 2.57%
- CCC[C@@H](/C=C/S(=O)(=O)c1ccccc1)NC(=O)[C@H](Cc1ccc(F)cc1)NC(=O)N1CCC(N2CCOCC2)CC1 — higher, 6.03%
- COc1ccc(C2C(C#N)=C(N)Oc3[nH]nc(C)c32)cc1CSc1ccccn1 (stereo not drawn) — lower, -2.8%
- Cc1nn(-c2cccc(F)c2)c2c1c(C(F)(F)F)cc(=O)n2CC(=O)N1CCCC1 — lower, -4.17%
- Cc1c(Cl)cccc1NS(=O)(=O)Cc1ccccc1 — higher, 0.219%
- CC(C)N(CCCNC(=O)C1CCC(CNS(=O)(=O)c2ccccc2)CC1)Cc1ccccc1 (stereo not drawn) — lower, -6.4%
- CC(=O)Nc1ccc(S(=O)(=O)N2CCCC2)cc1 — higher, 3.54%
- NC(=O)C1CCN(C(=O)CCc2nnc3n(CCc4ccccc4)c(=O)c4ccccc4n23)CC1 — higher, 4.16%
- CCCNC(=O)C1Sc2nnc(-c3ccccc3)n2NC1c1ccc(OC)cc1 (stereo not drawn) — lower, -3.53%
- CC1CN(C)C(C)CC1NCc1ccccc1 (stereo not drawn) — lower, -3.44%
- CN1N=C(c2ccccc2)CC1=O — higher, 17%
- CC(NC(=O)CSc1nnc(COc2ccccc2Cl)o1)c1ccccc1 (stereo not drawn) — higher, 4.18%
- CS(=O)(=O)c1nc(S(=O)(=O)c2ccc(Cl)cc2)c(NCc2ccccc2Cl)s1 — higher, 1.15%
- CCOc1ccc(NC(=O)C(=O)NC2CCCCC2)cc1 — lower, -0.414%
- CCOC(=O)c1oc2ccccc2c1C — higher, 3.77%
- CCCOc1ccc(C2C(C(=O)OCC)=CN(C)C=C2C(=O)OCC)cc1 — higher, 3.45%
- CC(C=O)NC(=O)C(Cc1ccccc1)NC(=O)Nc1ccccc1 (stereo not drawn) — lower, -0.778%
- C=CCc1cccc2cc(C(=O)Nc3ccccc3Cl)c(=O)oc12 — lower, -6.18%
- Cc1cccc(NC(=O)Cn2cc(S(=O)(=O)N3CCCC3)c(S(=O)(=O)N3CCCC3)c2)n1 — lower, -3.94%
- COP(=O)(OC)C(Nc1ccc(Br)cc1)c1ccc(Cl)cc1 (stereo not drawn) — lower, -0.744%
- O=c1c2c(n3nnnc3n1-c1ccccc1)-c1ccccc1CC21CCCC1 — lower, -0.902%
- CN(C)S(=O)(=O)c1ccc(C(=O)NCC(C)(C)CNC2=NS(=O)(=O)c3ccccc32)cc1 — higher, -0.0735%
- CCOc1cc(C2c3c(-c4ccccc4O)n[nH]c3C(=O)N2CC2CCCO2)ccc1O (stereo not drawn) — lower, -1.35%
- O=c1c2cnn(-c3ccc(F)cc3)c2ncn1Cc1ccc(C(F)(F)F)cc1 — higher, -0.0309%
- O=C(c1ccc(COc2ccccc2Cl)o1)N1CCN(Cc2ccc3c(c2)OCO3)CC1 — lower, -1.33%
- COc1cc(C2CC(=O)NC3=C2C(=O)CC(C)(C)C3)c(OC)cc1Br (stereo not drawn) — higher, 2.54%
- CC(C)c1ccc(C2=CC(c3ccccc3Cl)n3nnnc3N2)cc1 (stereo not drawn) — higher, 0.219%
- O=C(Nc1ccc(F)c(Cl)c1)Nc1cccc2ccccc12 — lower, -2.18%
- c1ccc(-c2nc3c4ccccc4nc(NCc4ccco4)n3n2)cc1 — lower, -2.42%
- OCC1CCCN(Cc2ccccc2Br)C1 (stereo not drawn) — higher, 1.04%
- O=C(Nc1ccc(Cl)cc1Cl)C1CCCO1 (stereo not drawn) — higher, 5.31%
- C=CCC1(C#N)C(=S)N=C2CC(C)(C)CC(O)=C2C1c1ccccc1 (stereo not drawn) — higher, 4.04%
- CCc1ccc(OCc2ccc(C(=O)O)o2)cc1 — higher, 0.413%
- COc1ccc(-c2noc(-c3nnn(-c4cccc(C(F)(F)F)c4)c3N)n2)cc1 — higher, 5.71%
- COc1cc(/C=N/N=C(\N)c2nonc2N)ccc1O — higher, 1.91%
- CS(=O)(=O)N(CC(=O)NCc1ccccc1)C1CCCCC1 — lower, -1.89%
- CC1(C)COC(c2coc3ccccc3c2=O)OC1 — lower, -1.11%
- O=C(O)c1cccc(NC(=O)c2ccc3c(c2)C(=O)N(c2cccc(C(=O)O)c2)C3=O)c1 — lower, -1.42%
- O=C(O)C(Cc1c[nH]cn1)Nc1c2ccccc2nc2ccccc12 (stereo not drawn) — higher, 2.05%
- O=S(=O)(Cc1ccccc1)N1CCN(c2ccccc2)CC1 — higher, 6.5%
- O=C(NCc1ccco1)c1ccc(F)cc1 — lower, -1.86%
- Cc1nc2nc(C)c(CCC(=O)NC(C)CCc3ccccc3)c(C)n2n1 (stereo not drawn) — lower, -0.685%
- CCOc1ccc2ccccc2c1C(=O)NCCn1c(C)cc2ccccc21 — higher, 3.11%
- CCOC(=O)c1sc2c(c1NC(=O)COc1ccc(Cl)cc1)CCCC2 — higher, 5.88%
- COc1ccccc1CNC(=O)c1ccc(CN(c2ccccc2)S(=O)(=O)c2ccccc2)cc1 — lower, -3.74%
- O=C(NCc1ccc2c(c1)OCO2)c1cc2c(ccc3ccccc32)oc1=O — higher, 1.32%
- CC(C)C[C@H](NC(=O)OCc1ccccc1)C(=O)N[C@@H](CCc1ccccc1)C(=O)c1nc2cc(Cl)ccc2o1 — lower, -5.64%
- Cc1nc2ccccc2n1-c1nc(-c2ccco2)cc(C(F)(F)F)n1 — lower, -2.47%
- COc1cccc(Nc2nc(-c3ccc(F)cc3)cs2)c1 — higher, 0.912%
- Cc1ccc(-c2cc(C(F)F)nc(S(C)(=O)=O)n2)cc1 — lower, -9.05%
- O=C(NCc1cccc2ccccc12)C(=O)c1c[nH]c2ccccc12 — higher, 8.87%
- COc1ccc(Br)cc1C1C(C#N)=C(N)Oc2c1c(C)nn2-c1ccccc1 (stereo not drawn) — lower, -4.4%
- O=C(Cn1c(SCc2ccccc2F)nc2ccncc21)NCC1CCCO1 (stereo not drawn) — higher, 2.45%

In the case of `O=C1NC(=O)/C(=C\c2cccc(O)c2)S1`, the “% Inhibition @ 10 uM” value was 2.03% and 1.29%.
